This is an account of results in the RNAGym collection of RNA variant scans (doi:10.7554/elife.90254).

B1: LINE1-full (parent)
chain: UACGUAGGUGGUUUUCCCCUGAUAGUGCUAAGGGGGCCUGGAAGUUUGGACUGGGCAGAGCUCAACACAGCGUGGCAAAGUGGCUGUGGCUAGACUGCCUCUCUGGAUUCCUCGUCACUCAGCAGGGCAUCUCUGAGAGAAAUGCC

Read counts are not given, so values of variants with three or more changes are uncertain.

In this data set the parent is B1. Kind of data set: self-cleavage, relative activity (ratio to wild type); higher = more cleavage; in vitro, sequencing; the parent is a self-cleaving ribozyme.
Consider UACGUAGGUGGUUUUCCCCUGAUAGUGCUAAGGGGGCCUGGAAGUUUGGACUGGGCAGAGCUCAACACAGCGUGGCAAAGUGGCUGUGGUUAGACUGCCUCUUUGGAUUCCUCGACACUCAGCAGGGCAUCUCUGAGAGAAAUGCC, for which the self-cleavage came to 0.03. The figure for UACGUAGGUGGUUUUCCCCUGAUAGUGCUAAGGGGGCCUGGAAGUUUGGACUGGGCAGAGCUCAACACAGCGUGGCAAAGUGGCUGUGGCCAGACUGCCUCAAUGGAUUCCUCGUCACUCAGCAGGGCAUCUCUGAGAGAAAUGCC is 0.75; for UACGUAGGUGGUUUUCCCCUGAUAGUGCUAAGGGGGCCUGGAAGUUUGGACUGGGCAGAGCUCAACACAGCGUGGCAAAGUGGCUGUAGCUAGACAGCCUCUCUGGACUCCUCGUCACUCAGCAGGGCAUCUCUGAGAGAAAUGCC it is 0.04. UACGUAGGUGGUUUUCCCCUGAUAGUGCUAAGGGGGCCUGGAAGUUUGGACUGGGCAGAGCUCAACACAGCGUGGCAAAGUGGCUGUGGCAAGACUGCCUCUCUGGAUUCCUCGUCACUCAGCAAGGCAUCUCCGAGAGAAAUGCC: the self-cleavage turned out to be 0.51. Consider UACGUAGGUGGUUUUCCCCUGAUAGUGCUAAGGGGGCCUGGAAGUUUGGACUGGGCAGAGCUCAACACAGCGUGGCAAAGUGGCUGUGGCCAGACUGCCUCUCUGAAUUCCUCGACACUCAGCAGGGCAUCUCUGAGAGAAAUGCC, for which the self-cleavage came out at 0.1.

As for UACGUAGGUGGUUUUCCCCUGAUAGUGCUAAGGGGGCCUGGAAGUUUGGACUGGGCAGAGCUCAACACAGCGUGGCAAAGUGGCUGGGGCUAGACUGCCUCUCAGGAUUCCUCGUCACUCAGCGGGGCAGCUCUGAGAGAAAUGCC, the self-cleavage stood at 0. As for UACGUAGGUGGUUUUCCCCUGAUAGUGCUAAGGGGGCCUGGAAGUUUGGACUGGGCAGAGCUCAACACAGCGUGGCAAAGUGGCUGUGACUAGACUGCCUCUCUGGACUCCUCGUCACUCAGCAGGGCAUCUCUGAGAGAAGUGCC, the self-cleavage turned out to be 0.02.

Take UACGUAGGUGGUUUUCCCCUGAUAGUGCUAAGGGGGCCUGGAAGUUUGGACUGGGCAGAGCUCAACACAGCGUGGCAAAGUGGCUGUGGGUAGACUGCCUCACUGGAUUCCUCGUCACUCAGCAGGCCAUCUCUGAGAGAAAUGCC: the self-cleavage turned out to be 0.05. UACGUAGGUGGUUUUCCCCUGAUAGUGCUAAGGGGGCCUGGAAGUUUGGACUGGGCAGAGCUCAACACAGCGUGGCAAAGUGGCUGUGGCCAGACUGCCUCUCCGGAUUCCUCGUCACUCAGCAGGGCUUCUCCGAGAGAAAUGCC: the self-cleavage worked out at 1.02.

In the case of UACGUAGGUGGUUUUCCCCUGAUAGUGCUAAGGGGGCCUGGAAGUUUGGACUGGGCAGAGCUCAACACAGCGUGGCAAAGUGGCUGUGGCCAGACCGCCUCUCUGGAUUCCUCGUCACUCAGCAGGGCAUCUCUGGGAGAAAAGCC, the self-cleavage was 0. Consider UACGUAGGUGGUUUUCCCCUGAUAGUGCUAAGGGGGCCUGGAAGUUUGGACUGGGCAGAGCUCAACACAGCGUGGCAAAGUGGCUGCGGCUAGACUGCCUCUCUGGAUUCCUCGACACUCAGCAGGGCAUCUCUGAGAGAAAAGCC, for which the self-cleavage was determined as 0.19.

For the variant UACGUAGGUGGUUUUCCCCUGAUAGUGCUAAGGGGGCCUGGAAGUUUGGACUGGGCAGAGCUCAACACAGCGUGGCAAAGUGGCUGUGGCCAGACUGCCUCUCUGGAUUCCUCGUCACUCGGCAGGGCAUCUCUGAGAGGAAUGCC, the self-cleavage was 0.37. Next, UACGUAGGUGGUUUUCCCCUGAUAGUGCUAAGGGGGCCUGGAAGUUUGGACUGGGCAGAGCUCAACACAGCGUGGCAAAGUGGCUGUGACUAGACUGCCUCUCUGGAUUCCUCGUCACUCUGCGGGGCGUCUCUGAGAGAAAUGCC: 0.03; UACGUAGGUGGUUUUCCCCUGAUAGUGCUAAGGGGGCCUGGAAGUUUGGACUGGGCAGAGCUCAACACAGCGUGGCAAAGUGGCUGUGGCCAGACUGCUUCUCUGGAUUCCUCGCCACUCAGCAGGGCAUCUCUGAGAGAAAUGCC: 0.24; UACGUAGGUGGUUUUCCCCUGAUAGUGCUAAGGGGGCCUGGAAGUUUGGACUGGGCAGAGCUCAACACAGCGUGGCAAAGUGGCUGUGGGUAGACUGCCUCUCUGGAUUCCUCGUCACUCAGCAGUGCAUCUCUGAGUGAAAUGCC: 0.03. Next, UACGUAGGUGGUUUUCCCCUGAUAGUGCUAAGGGGGCCUGGAAGUUUGGACUGGGCAGAGCUCAACACAGCGUGGCAAAGUGGCUGCGGCUAGACUGCCUCUCUGGAUUCCCCGUAACUCCGCAGGGCAUCUCUGAGAGAAAUGCC: 0.18; UACGUAGGUGGUUUUCCCCUGAUAGUGCUAAGGGGGCCUGGAAGUUUGGACUGGGCAGAGCUCAACACAGCGUGGCAAAGUGGCUGUGGCCAGACUGCCUCCCUGGAUUCCUCGUCACUCAGCAGGGCAUCACUGAGAGAAAUGCC: 0.89; UACGUAGGUGGUUUUCCCCUGAUAGUGCUAAGGGGGCCUGGAAGUUUGGACUGGGCAGAGCUCAACACAGCGUGGCAAAGUGGCUGUGACUAGACUGCCUCUCUGGAUUCCUCGUCACUCAGCAUGGCAUCUCUGAGAGAAGUGCC: 0.03. The figure for UACGUAGGUGGUUUUCCCCUGAUAGUGCUAAGGGGGCCUGGAAGUUUGGACUGGGCAGAGCUCAACACAGCGUGGCAAAGUGGCUGUAGCUAGACUGCCUCUCUGGAUUCCUCGUCGCUCAGCAGGGCAUCUCUGAGGGAAAUGCC is 0.02. For UACGUAGGUGGUUUUCCCCUGAUAGUGCUAAGGGGGCCUGGAAGUUUGGACUGGGCAGAGCUCAACACAGCGUGGCAAAGUGGCUGUAGCUAGACUGCCUCCCUGGAUUCCUCGUCACCCAGCAGGGCAUCUCUGAGAGAAAUGCC, the self-cleavage was determined as 0.05.
